# The supplement of paper PMC8728848
# The list shows a part of the results.
# Tests used:
# Assay in all cases: glycan array binding signal (z-score within array); higher = stronger binding
# Conditions in all cases: glycan notation: IUPAC condensed, linker removed
# [1] = target: Gal(a1-3)Gal(b1-4)GlcNAc(b1-2)Man
# Method in brief: (§1)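 Negative Z-scores can be read as non-binding. The Z-score is calculated within each array and then averaged across arrays of one protein sequence at different concentrations or buffers and across linkers. Arrays, 3228 in all, were curated from the Consortium for Functional Glycomics database and kept only where the protein sequence was available.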
# [2] = target: Gal(a1-3)Gal(b1-4)GlcNAc(b1-2)Man(a1-3)[Gal(a1-3)Gal(b1-4)GlcNAc(b1-2)Man(a1-6)]Man(b1-4)GlcNAc(b1-4)GlcNAc
# Method in brief: as §1
# [3] = target: Gal(a1-3)Gal(b1-4)GlcNAc(b1-3)GalNAc
# Method in brief: as §1
# [4] = target: Gal(a1-3)Gal(b1-4)GlcNAc(b1-6)GalNAc
# Method in brief: as §1
# [5] = target: Gal(a1-3)Gal(b1-4)[Fuc(a1-3)]GlcNAc
# Method in brief: as §1
# [6] = target: Gal(a1-3)Gal(b1-4)[Fuc(a1-3)]GlcNAc(b1-2)Man(a1-3)[Gal(a1-3)Gal(b1-4)[Fuc(a1-3)]GlcNAc(b1-2)Man(a1-6)]Man(b1-4)GlcNAc(b1-4)GlcNAc
# Method in brief: as §1
# Gal(a1-3)GalNAc = target: Gal(a1-3)GalNAc
# Method in brief: as §1
# [7] = target: Gal(a1-3)[Gal(a1-4)]Gal(b1-4)GlcNAc
# Method in brief: as §1
# [8] = target: Gal(a1-4)Gal(b1-3)GlcNAc(b1-2)Man(a1-3)[Gal(a1-4)Gal(b1-3)GlcNAc(b1-2)Man(a1-6)]Man(b1-4)GlcNAc(b1-4)GlcNAc
# Method in brief: as §1
# Gal(a1-4)Gal(b1-4)Glc = target: Gal(a1-4)Gal(b1-4)Glc
# Method in brief: as §1
# Gal(a1-4)Gal(b1-4)GlcNAc = target: Gal(a1-4)Gal(b1-4)GlcNAc
# Method in brief: as §1
# [9] = target: Gal(a1-4)Gal(b1-4)GlcNAc(b1-2)Man(a1-3)[Gal(a1-4)Gal(b1-4)GlcNAc(b1-2)Man(a1-6)]Man(b1-4)GlcNAc(b1-4)GlcNAc
# Method in brief: as §1
# [10] = target: Gal(a1-4)Gal(b1-4)GlcNAc(b1-3)Gal(b1-4)Glc
# Method in brief: as §1
# Gal(a1-4)GlcNAc = target: Gal(a1-4)GlcNAc
# Method in brief: as §1
# Gal(a1-6)Glc = target: Gal(a1-6)Glc
# Method in brief: as §1
# Gal(b1-2)Gal = target: Gal(b1-2)Gal
# Method in brief: as §1
# Gal(b1-3)Gal = target: Gal(b1-3)Gal
# Method in brief: as §1
# Gal(b1-3)Gal(b1-4)GlcNAc = target: Gal(b1-3)Gal(b1-4)GlcNAc
# Method in brief: as §1
# Gal(b1-3)GalNAc = target: Gal(b1-3)GalNAc
# Method in brief: as §1
# [11] = target: Gal(b1-3)GalNAc(a1-3)[Fuc(a1-2)]Gal(b1-4)Glc
# Method in brief: as §1
# [12] = target: Gal(b1-3)GalNAc(a1-3)[Fuc(a1-2)]Gal(b1-4)GlcNAc
# Method in brief: as §1
# Gal(b1-3)GalNAc(b1-3)Gal = target: Gal(b1-3)GalNAc(b1-3)Gal
# Method in brief: as §1
# [13] = target: Gal(b1-3)GalNAc(b1-3)Gal(a1-4)Gal(b1-4)Glc
# Method in brief: as §1
# [14] = target: Gal(b1-3)GalNAc(b1-4)Gal(b1-4)Glc
# Method in brief: as §1
# [15] = target: Gal(b1-3)GalNAc(b1-4)[Neu5Ac(a2-3)]Gal(b1-4)Glc
# Method in brief: as §1
# Gal(b1-3)GlcNAc = target: Gal(b1-3)GlcNAc
# Method in brief: as §1
# [16] = target: Gal(b1-3)GlcNAc(a1-3)Gal(b1-4)GlcNAc
# Method in brief: as §1
# [17] = target: Gal(b1-3)GlcNAc(a1-6)Gal(b1-4)GlcNAc
# Method in brief: as §1
# Gal(b1-3)GlcNAc(b1-2)Man = target: Gal(b1-3)GlcNAc(b1-2)Man
# Method in brief: as §1
# [18] = target: Gal(b1-3)GlcNAc(b1-2)Man(a1-3)[Gal(b1-3)GlcNAc(b1-2)Man(a1-6)]Man(b1-4)GlcNAc(b1-4)GlcNAc
# Method in brief: as §1
# [19] = target: Gal(b1-3)GlcNAc(b1-2)Man(a1-3)[Gal(b1-3)GlcNAc(b1-2)Man(a1-6)]Man(b1-4)GlcNAc(b1-4)[Fuc(a1-6)]GlcNAc
# Method in brief: as §1
# [20] = target: Gal(b1-3)GlcNAc(b1-2)Man(a1-3)[GlcNAc(b1-4)][Gal(b1-3)GlcNAc(b1-2)Man(a1-6)]Man(b1-4)GlcNAc(b1-4)GlcNAc
# Method in brief: as §1
# [21] = target: Gal(b1-3)GlcNAc(b1-2)[Gal(b1-3)GlcNAc(b1-6)]Man(a1-6)[Gal(b1-3)GlcNAc(b1-2)Man(a1-3)]Man(b1-4)GlcNAc(b1-4)GlcNAc
# Method in brief: as §1
# [22] = target: Gal(b1-3)GlcNAc(b1-3)Gal(b1-3)GlcNAc
# Method in brief: as §1
# [23] = target: Gal(b1-3)GlcNAc(b1-3)Gal(b1-4)Glc
# Method in brief: as §1
# [24] = target: Gal(b1-3)GlcNAc(b1-3)Gal(b1-4)GlcNAc
# Method in brief: as §1
# [25] = target: Gal(b1-3)GlcNAc(b1-3)Gal(b1-4)GlcNAc(b1-2)Man(a1-3)[Gal(b1-3)GlcNAc(b1-3)Gal(b1-4)GlcNAc(b1-2)Man(a1-6)]Man(b1-4)GlcNAc(b1-4)GlcNAc
# Method in brief: as §1
# [26] = target: Gal(b1-3)GlcNAc(b1-3)Gal(b1-4)GlcNAc(b1-2)[Gal(b1-3)GlcNAc(b1-3)Gal(b1-4)GlcNAc(b1-6)]Man(a1-6)[Gal(b1-3)GlcNAc(b1-3)Gal(b1-4)GlcNAc(b1-2)Man(a1-3)]Man(b1-4)GlcNAc(b1-4)[Fuc(a1-6)]GlcNAc
# Method in brief: as §1
# [27] = target: Gal(b1-3)GlcNAc(b1-3)Gal(b1-4)GlcNAc(b1-3)Gal(b1-4)GlcNAc(b1-2)[Gal(b1-3)GlcNAc(b1-3)Gal(b1-4)GlcNAc(b1-3)Gal(b1-4)GlcNAc(b1-6)]Man(a1-6)[Gal(b1-3)GlcNAc(b1-3)Gal(b1-4)GlcNAc(b1-3)Gal(b1-4)GlcNAc(b1-2)Man(a1-3)]Man(b1-4)GlcNAc(b1-4)[Fuc(a1-6)]GlcNAc
# Method in brief: as §1
# [28] = target: Gal(b1-3)GlcNAc(b1-3)Gal(b1-4)GlcNAc(b1-6)[Gal(b1-3)GlcNAc(b1-3)]Gal(b1-4)Glc
# Method in brief: as §1
# [29] = target: Gal(b1-3)GlcNAc(b1-3)Gal(b1-4)[Fuc(a1-3)]GlcNAc
# Method in brief: as §1
# [30] = target: Gal(b1-3)GlcNAc(b1-3)Gal(b1-4)[Fuc(a1-3)]GlcNAc(b1-6)[Gal(b1-3)GlcNAc(b1-3)]Gal(b1-4)Glc
# Method in brief: as §1
# [31] = target: Gal(b1-3)GlcNAc(b1-3)GalNAc
# Method in brief: as §1
# [32] = target: Gal(b1-3)GlcNAc(b1-6)Gal(b1-4)GlcNAc
# Method in brief: as §1
# [33] = target: Gal(b1-3)GlcNAc(b1-6)GalNAc
# Method in brief: as §1
binder,measurement,setting,value
LecB PA14 (Pseudomonas aeruginosa) (protein) MATQGVFTLPANTQFGVTAFANSAGTQTVNVQVNNETVATFTGQSTNNAIIGSKVLNSGGGGKVQILVSVNGRSSDLVSAQVILANELNFALVGSEDSTDNDYNDAVVVINWPLG,glycan array binding signal (z-score),[1],-0.746
same,glycan array binding signal (z-score),[2],-0.446
same,glycan array binding signal (z-score),[3],-0.61
same,glycan array binding signal (z-score),[4],-0.532
same,glycan array binding signal (z-score),[5],0.859
same,glycan array binding signal (z-score),[6],0.183
same,glycan array binding signal (z-score),Gal(a1-3)GalNAc,-0.581
same,glycan array binding signal (z-score),[7],0.434
same,glycan array binding signal (z-score),[8],-0.397
same,glycan array binding signal (z-score),Gal(a1-4)Gal(b1-4)Glc,-0.633
same,glycan array binding signal (z-score),Gal(a1-4)Gal(b1-4)GlcNAc,-0.113
same,glycan array binding signal (z-score),[9],-0.292
same,glycan array binding signal (z-score),[10],0.061
same,glycan array binding signal (z-score),Gal(a1-4)GlcNAc,-0.949
same,glycan array binding signal (z-score),Gal(a1-6)Glc,-0.62
same,glycan array binding signal (z-score),Gal(b1-2)Gal,-0.748
same,glycan array binding signal (z-score),Gal(b1-3)Gal,-0.06
same,glycan array binding signal (z-score),Gal(b1-3)Gal(b1-4)GlcNAc,-0.517
same,glycan array binding signal (z-score),Gal(b1-3)GalNAc,-0.109
same,glycan array binding signal (z-score),[11],-0.227
same,glycan array binding signal (z-score),[12],-0.64
same,glycan array binding signal (z-score),Gal(b1-3)GalNAc(b1-3)Gal,-0.007
same,glycan array binding signal (z-score),[13],-0.411
same,glycan array binding signal (z-score),[14],-0.558
same,glycan array binding signal (z-score),[15],-0.21
same,glycan array binding signal (z-score),Gal(b1-3)GlcNAc,-0.781
same,glycan array binding signal (z-score),[16],0.132
same,glycan array binding signal (z-score),[17],-0.617
same,glycan array binding signal (z-score),Gal(b1-3)GlcNAc(b1-2)Man,0.53
same,glycan array binding signal (z-score),[18],-0.37
same,glycan array binding signal (z-score),[19],0.647
same,glycan array binding signal (z-score),[20],0.447
same,glycan array binding signal (z-score),[21],0.307
same,glycan array binding signal (z-score),[22],0.494
same,glycan array binding signal (z-score),[23],-0.401
same,glycan array binding signal (z-score),[24],-0.628
same,glycan array binding signal (z-score),[25],0.146
same,glycan array binding signal (z-score),[26],0.648
same,glycan array binding signal (z-score),[27],1.51
same,glycan array binding signal (z-score),[28],-0.714
same,glycan array binding signal (z-score),[29],0.06
same,glycan array binding signal (z-score),[30],-0.406
same,glycan array binding signal (z-score),[31],-0.818
same,glycan array binding signal (z-score),[32],-0.708
same,glycan array binding signal (z-score),[33],-0.107
